pIC50: −log10 of the molar value. By IC50 is meant the dose at which the fit gives 50% viability; a fit beyond the top or the lowest dose is shown as a bound at that dose. AUC, from the same fit, is the share of area under the viability curve across the 256-fold dose range: 1 means no effect, lower means more sensitive. The top dose, if marked as inferred, was calculated from the reported fits. For some of these results: Where an entry number is given, a second screen of the drug exists; the two often differ.
Legend:
Experiment in all cases: Viability of human cancer cell lines after 72 h of drug (GDSC screen)
BMS-536924 = compound: Cc1cc(N2CCOCC2)cc2[nH]c(-c3c(NC[C@@H](O)c4cccc(Cl)c4)cc[nH]c3=O)nc12 [BMS-536924]; conditions: top dose 4 µM; screen: GDSC drug entry 1091; top dose inferred
Procedure: (§1)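 Human cancer cell lines in 384-well plates, medium with 10% serum, drug for 72 h over a 256-fold dose range (nine 2-fold or five 4-fold steps up to the top dose). Adherent lines were fixed and stained with the nucleic acid dye Syto60, suspension lines read with resazurin; signal relative to control wells, capped at 0 and 100%. One two-parameter sigmoid per drug and line, fitted in a mixed model over all curves with the slope shared within a line.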

SB-525334 = compound: Cc1cccc(-c2[nH]c(C(C)(C)C)nc2-c2ccc3nccnc3c2)n1 [SB-525334]; conditions: top dose 20 µM; top dose inferred
Procedure: as §1

Wee1 inhibitor 681640 = compound: O=C1NC(=O)c2c1c(-c1ccccc1Cl)cc1[nH]c3ccc(O)cc3c21 [Wee1 inhibitor 681640]; conditions: top dose 2 µM; top dose inferred
Procedure: as §1

BIRB 0796 = compound: Cc1ccc(-n2nc(C(C)(C)C)cc2NC(=O)Nc2ccc(OCCN3CCOCC3)c3ccccc23)cc1 [BIRB 0796]; conditions: top dose 10 µM; top dose inferred
Procedure: as §1

HG-5-113-01 = compound: CNC(=O)c1ccc(Nc2cc(Nc3ccccc3S(=O)(=O)C(C)C)c3cc[nH]c3n2)nc1 [HG-5-113-01]; conditions: top dose 10 µM; top dose inferred
Procedure: as §1

Shikonin = compound: CC(C)=CC[C@@H](O)C1=CC(=O)c2c(O)ccc(O)c2C1=O [Shikonin]; conditions: top dose 16 µM; top dose inferred
Procedure: as §1

VX-702 = compound: NC(=O)c1ccc(N(C(N)=O)c2c(F)cccc2F)nc1-c1ccc(F)cc1F [VX-702]; conditions: top dose 2 µM; top dose inferred
Procedure: as §1

Olaparib = compound: O=C(c1cc(Cc2n[nH]c(=O)c3ccccc23)ccc1F)N1CCN(C(=O)C2CC2)CC1 [Olaparib]
Procedure: as §1

[1] = top dose 5 µM, screen: GDSC drug entry 1017, top dose inferred
[2] = top dose 10 µM, screen: GDSC drug entry 1495

Row | Cell Line | AUC (BMS-536924) | pIC50 (BMS-536924) | AUC (SB-525334) | pIC50 (SB-525334) | AUC (Wee1 inhibitor 681640) | pIC50 (Wee1 inhibitor 681640) | AUC (BIRB 0796) | pIC50 (BIRB 0796) | AUC (HG-5-113-01) | pIC50 (HG-5-113-01) | AUC (Shikonin) | pIC50 (Shikonin) | AUC (VX-702) | pIC50 (VX-702) | AUC (Olaparib; [1]) | pIC50 (Olaparib; [1]) | AUC (Olaparib; [2]) | pIC50 (Olaparib; [2])
1 | HCT-15 (large intestine, adherent) | 0.965 | < 5.40 | 0.973 | < 4.70 | 0.935 | < 5.70 | 0.984 | < 5.00 | 0.916 | < 5.00 | 0.297 | 6.59 | 0.987 | < 5.70 |  |  |  | 
2 | HCT-116 (large intestine, adherent) | 0.767 | 5.85 | 0.959 | < 4.70 | 0.963 | < 5.70 | 0.976 | < 5.00 | 0.661 | 5.77 | 0.374 | 6.34 | 0.976 | < 5.70 |  |  |  | 
3 | HT-29 (large intestine, adherent) | 0.785 | 5.77 | 0.901 | < 4.70 | 0.988 | < 5.70 | 0.986 | < 5.00 | 0.789 | 5.35 | 0.431 |  | 0.987 | < 5.70 |  |  |  | 
4 | JHU-029 (head and neck, adherent) | 0.809 | 5.57 |  |  | 0.968 | < 5.70 | 0.968 | < 5.00 | 0.685 | 5.63 | 0.297 | 6.63 | 0.957 | < 5.70 | 0.927 | < 5.30 | 0.832 | 5.07
5 | KYSE-140 (oesophagus, adherent) |  |  | 0.943 | < 4.70 | 0.86 | < 5.70 | 0.933 | < 5.00 | 0.919 | < 5.00 | 0.32 | 6.53 | 0.984 | < 5.70 | 0.984 | < 5.30 |  | 
6 | LoVo (large intestine, adherent) | 0.907 | < 5.40 | 0.987 | < 4.70 | 0.838 | 5.86 | 0.973 | < 5.00 | 0.781 | 5.38 | 0.55 | 5.86 | 0.987 | < 5.70 |  |  |  | 
7 | MHH-ES-1 (Ewing sarcoma, adherent) | 0.766 | 5.84 | 0.602 | 5.63 | 0.979 | < 5.70 | 0.933 | < 5.00 | 0.629 | 5.85 | 0.425 | 6.20 | 0.966 | < 5.70 |  |  |  | 
8 | MKN28 (stomach, adherent) |  |  | 0.942 | < 4.70 | 0.982 | < 5.70 | 0.947 | < 5.00 | 0.735 | 5.53 | 0.415 | 6.24 | 0.986 | < 5.70 | 0.986 | < 5.30 |  | 
9 | NCI-H460 (large cell lung carcinoma, adherent) | 0.904 | < 5.40 | 0.984 | < 4.70 | 0.978 | < 5.70 | 0.986 | < 5.00 | 0.801 | 5.36 | 0.574 | 5.81 | 0.989 | < 5.70 |  |  |  | 
10 | NCI-H1568 (lung adenocarcinoma, adherent) | 0.937 | < 5.40 | 0.956 | < 4.70 | 0.879 | < 5.70 | 0.936 | < 5.00 | 0.867 | < 5.00 | 0.335 | 6.51 | 0.977 | < 5.70 |  |  |  | 
11 | NCI-H1792 (lung adenocarcinoma, adherent) | 0.825 | 5.68 | 0.965 | < 4.70 | 0.944 | < 5.70 | 0.989 | < 5.00 | 0.83 | 5.26 | 0.819 | 5.10 | 0.978 | < 5.70 |  |  |  | 
12 | OVCAR-8 (ovary, adherent) | 0.986 | < 5.40 | 0.954 | < 4.70 | 0.826 | 5.98 | 0.972 | < 5.00 | 0.767 | 5.47 | 0.357 | 6.37 | 0.985 | < 5.70 |  |  |  | 
13 | SCC90 (head and neck, adherent) | 0.907 | < 5.40 |  |  | 0.972 | < 5.70 | 0.975 | < 5.00 | 0.844 | < 5.00 | 0.769 | 5.06 | 0.981 | < 5.70 | 0.981 | < 5.30 | 0.947 | < 5.00
14 | SNU-81 (large intestine, adherent) | 0.97 | < 5.40 | 0.981 | < 4.70 | 0.982 | < 5.70 | 0.982 | < 5.00 | 0.768 | 5.29 |  |  | 0.982 | < 5.70 | 0.964 | < 5.30 | 0.919 | < 5.00
15 | SNU-407 (large intestine, adherent) | 0.877 | < 5.40 | 0.924 | < 4.70 | 0.973 | < 5.70 | 0.979 | < 5.00 | 0.682 | 5.65 |  |  | 0.983 | < 5.70 | 0.949 | < 5.30 | 0.902 | < 5.00
16 | SNU-C5 (large intestine, adherent) | 0.967 | < 5.40 | 0.973 | < 4.70 | 0.956 | < 5.70 | 0.958 | < 5.00 | 0.794 | 5.29 |  |  | 0.986 | < 5.70 | 0.981 | < 5.30 | 0.954 | < 5.00
17 | STS-0421 (soft tissue, adherent) | 0.756 | 5.80 |  |  | 0.983 | < 5.70 | 0.951 | < 5.00 | 0.732 | 5.49 | 0.57 | 5.80 | 0.982 | < 5.70 | 0.949 | < 5.30 | 0.897 | < 5.00
18 | YH-13 (glioma, adherent) | 0.97 | < 5.40 | 0.976 | < 4.70 | 0.919 | < 5.70 | 0.98 | < 5.00 | 0.794 | 5.31 |  |  | 0.983 | < 5.70 | 0.964 | < 5.30 | 0.969 | < 5.00
